In the supplement of paper PMC6206098:
± gives the uncertainty stated by the source. Shown are siRNA guide strands that differ only in the seed, positions 2 to 7.

Key:
3LL = experiment: cell viability relative to siNT1 control; higher = less toxic; conditions: concentration: 10 nM; 96 h; Mus musculus;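 also: Luminescence-based viability of cells reverse transfected in 384-well plates with lipid-complexed siRNAs built on a non-toxic 19mer backbone whose passenger strand carries 2′-O-methyl groups at positions 1 and 2, triplicates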
HeyA8 = experiment: cell viability relative to lipid-only control; HeyA8 human ovarian and H460 human lung cancer; M565 mouse liver and 3LL mouse lung cancer; siNT1 is a non-toxic control siRNA; higher = less toxic; conditions: concentration: 10 nM; 96 h; Homo sapiens
M565 = experiment: as above; conditions: concentration: 10 nM; 96 h; Mus musculus
H460 = experiment: as above; conditions: concentration: 10 nM; 96 h; Homo sapiens
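For cell viability relative to lipid-only control in this document: reverse lipid transfection in 384-well plates, in triplicate, of duplexes on a non-toxic 19mer backbone with passenger strand 2′-O-methylated at positions 1 and 2, luminescence viability read-out.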

Sequence | cell viability (3LL) | cell viability (HeyA8) | cell viability (M565) | cell viability (H460)
UCUUGUGACAUGUAAACCAAA | 91.1 ± 16% | 82.4 ± 6.7% | 72.7 ± 18% | 63.4 ± 8.5%
UCUUGUUACAUGUAAACCAAA | 91.9 ± 9.3% | 78 ± 0.95% | 67.5 ± 15% | 66.5 ± 7.4%
UCUUUAAACAUGUAAACCAAA | 90.4 ± 17% | 83.9 ± 7.7% | 52.1 ± 12% | 83 ± 3%
UCUUUACACAUGUAAACCAAA | 86.9 ± 14% | 82.7 ± 5.6% | 76.2 ± 3.3% | 70.1 ± 0.89%
UCUUUAGACAUGUAAACCAAA | 90.8 ± 12% | 86 ± 7.1% | 61.7 ± 12% | 65.1 ± 12%
UCUUUAUACAUGUAAACCAAA | 93 ± 12% | 81.9 ± 5.9% | 62.8 ± 11% | 72.3 ± 3.4%
UCUUUCAACAUGUAAACCAAA | 90.2 ± 16% | 85 ± 11% | 81.9 ± 10% | 62.2 ± 4.2%
UCUUUCCACAUGUAAACCAAA | 92 ± 9.7% | 22.5 ± 2.7% | 93.6 ± 24% | 42.8 ± 4.3%
UCUUUCGACAUGUAAACCAAA | 97.1 ± 14% | 90.2 ± 12% | 79.6 ± 12% | 60.7 ± 2%
UCUUUCUACAUGUAAACCAAA | 85.4 ± 13% | 46.1 ± 4.6% | 80.2 ± 16% | 59.3 ± 2.6%
UCUUUGAACAUGUAAACCAAA | 91.1 ± 15% | 80.8 ± 8.1% | 76.2 ± 14% | 79.5 ± 7.5%
UCUUUGCACAUGUAAACCAAA | 66.5 ± 9.6% | 34.8 ± 2.9% | 68.6 ± 6.3% | 48.2 ± 1.3%
UCUUUGGACAUGUAAACCAAA | 94.8 ± 16% | 68.8 ± 6.4% | 48.1 ± 8.3% | 54.1 ± 5.1%
UCUUUGUACAUGUAAACCAAA | 75.6 ± 14% | 60.6 ± 5.2% | 76.5 ± 7.5% | 62.4 ± 4.7%
UCUUUUAACAUGUAAACCAAA | 91 ± 13% | 85.4 ± 11% | 75.9 ± 12% | 80.5 ± 9.7%
UCUUUUCACAUGUAAACCAAA | 83.4 ± 15% | 28.7 ± 3.6% | 87.7 ± 13% | 67.5 ± 10%
UCUUUUGACAUGUAAACCAAA | 86.4 ± 14% | 86.7 ± 9.7% | 84 ± 8.3% | 69.9 ± 4.1%
UCUUUUUACAUGUAAACCAAA | 85.2 ± 9.8% | 73.3 ± 4.9% | 81.2 ± 7.7% | 57 ± 6.4%
UGAAAAAACAUGUAAACCAAA | 100 ± 14% | 97.3 ± 5.1% | 78.7 ± 8.4% | 64.1 ± 6.1%
UGAAAACACAUGUAAACCAAA | 91.2 ± 18% | 61.6 ± 6% | 48.2 ± 12% | 80.4 ± 8.9%

Sequence | cell viability (3LL) | cell viability (HeyA8) | cell viability (M565) | cell viability (H460)
UGAAAAGACAUGUAAACCAAA | 97.5 ± 16% | 99.8 ± 9.3% | 71.7 ± 7.3% | 73.2 ± 17%
UGAAAAUACAUGUAAACCAAA | 74.1 ± 11% | 66 ± 7.1% | 63.6 ± 5.9% | 84.6 ± 24%
UGAAACAACAUGUAAACCAAA | 70.9 ± 12% | 76.1 ± 3.5% | 68.7 ± 9.6% | 64 ± 5.2%
UGAAACCACAUGUAAACCAAA | 50.1 ± 13% | 12 ± 0.89% | 28 ± 1.9% | 36.2 ± 2.1%
UGAAACGACAUGUAAACCAAA | 96.7 ± 14% | 87.4 ± 2.1% | 75.3 ± 8.4% | 82.1 ± 15%
UGAAACUACAUGUAAACCAAA | 36.8 ± 7% | 39.1 ± 2.3% | 55.6 ± 1.4% | 43.2 ± 11%
UGAAAGAACAUGUAAACCAAA | 101 ± 16% | 79.9 ± 1.8% | 51.7 ± 6.2% | 88.3 ± 17%
UGAAAGCACAUGUAAACCAAA | 56.5 ± 19% | 47.5 ± 1.4% | 13.2 ± 3.3% | 40.1 ± 8.8%
UGAAAGGACAUGUAAACCAAA | 43.1 ± 12% | 29.7 ± 3.4% | 35.5 ± 2.3% | 62.5 ± 7%
UGAAAGUACAUGUAAACCAAA | 86.1 ± 17% | 78.4 ± 7.2% | 14 ± 1.7% | 70.6 ± 8.6%
UGAAAUAACAUGUAAACCAAA | 100 ± 19% | 95.5 ± 5.1% | 72.7 ± 12% | 77 ± 31%
UGAAAUCACAUGUAAACCAAA | 47.2 ± 9.2% | 32.5 ± 2.5% | 46.9 ± 3% | 59.4 ± 2.9%
UGAAAUGACAUGUAAACCAAA | 105 ± 14% | 73 ± 5.4% | 67 ± 9.1% | 90 ± 15%
UGAAAUUACAUGUAAACCAAA | 94.7 ± 19% | 73.7 ± 4.4% | 60.7 ± 12% | 83 ± 13%
UGAACAAACAUGUAAACCAAA | 97.1 ± 20% | 89 ± 9.4% | 71.6 ± 20% | 102 ± 12%
UGAACACACAUGUAAACCAAA | 63.5 ± 11% | 38.5 ± 7.1% | 43.6 ± 8.9% | 47.5 ± 5.5%
UGAACAGACAUGUAAACCAAA | 91.3 ± 18% | 72.2 ± 5.6% | 54.6 ± 1.9% | 74 ± 12%
UGAACAUACAUGUAAACCAAA | 89.7 ± 17% | 49.5 ± 23% | 65.6 ± 9.3% | 82.4 ± 16%
UGAACCAACAUGUAAACCAAA | 98.6 ± 19% | 83 ± 4% | 58.4 ± 17% | 71 ± 10%
UGAACCCACAUGUAAACCAAA | 59 ± 13% | 65.7 ± 8.3% | 28.5 ± 2.2% | 64.4 ± 2.9%

Sequence | cell viability (3LL) | cell viability (HeyA8) | cell viability (M565) | cell viability (H460)
UGAACCGACAUGUAAACCAAA | 93.7 ± 14% | 85.6 ± 1% | 40.4 ± 2.2% | 86.4 ± 16%
UGAACCUACAUGUAAACCAAA | 77.7 ± 9.8% | 80.9 ± 4.1% | 39.1 ± 2.6% | 91.3 ± 19%
UGAACGAACAUGUAAACCAAA | 90.5 ± 20% | 98.8 ± 5.1% | 69.2 ± 12% | 81.9 ± 10%
UGAACGCACAUGUAAACCAAA | 63.2 ± 7.9% | 79 ± 2.8% | 47.8 ± 3.9% | 49.5 ± 3.6%
UGAACGGACAUGUAAACCAAA | 60.5 ± 9.2% | 70.4 ± 5.2% | 62.6 ± 5.4% | 58.1 ± 6.3%
UGAACGUACAUGUAAACCAAA | 33.4 ± 7.9% | 54.7 ± 1.4% | 22.1 ± 3.5% | 80.4 ± 21%
UGAACUAACAUGUAAACCAAA | 92.9 ± 12% | 95.4 ± 4.1% | 73.4 ± 4.9% | 96.3 ± 18%
UGAACUCACAUGUAAACCAAA | 63 ± 18% | 8 ± 3.1% | 33.8 ± 1.4% | 32.6 ± 1.9%
UGAACUGACAUGUAAACCAAA | 83 ± 16% | 82.8 ± 2.3% | 27.7 ± 1.1% | 72.5 ± 11%
UGAACUUACAUGUAAACCAAA | 90.3 ± 11% | 52 ± 2.6% | 77.6 ± 18% | 85.9 ± 14%
UGAAGAAACAUGUAAACCAAA | 90.9 ± 14% | 81.4 ± 5.4% | 35.2 ± 2.8% | 73.9 ± 12%
UGAAGACACAUGUAAACCAAA | 30 ± 2.6% | 23.7 ± 1.9% | 2.68 ± 0.26% | 41.7 ± 0.67%
UGAAGAGACAUGUAAACCAAA | 46.4 ± 11% | 74.4 ± 4.2% | 12.1 ± 1.7% | 72.4 ± 11%
UGAAGAUACAUGUAAACCAAA | 67.7 ± 3.2% | 1.8 ± 0.051% | 9.19 ± 0.48% | 30.2 ± 1.4%
UGAAGCAACAUGUAAACCAAA | 65.4 ± 8.6% | 77.4 ± 2.7% | 37.3 ± 2.2% | 60.1 ± 14%
UGAAGCCACAUGUAAACCAAA | 28.9 ± 5.3% | 8.52 ± 0.85% | 5.03 ± 1.1% | 34 ± 2.1%
UGAAGCGACAUGUAAACCAAA | 97.5 ± 7.5% | 83 ± 2.9% | 51.4 ± 5% | 94 ± 17%
UGAAGCUACAUGUAAACCAAA | 13.4 ± 1.9% | 14.7 ± 2.5% | 10.7 ± 0.81% | 35.5 ± 3.2%
UGAAGGAACAUGUAAACCAAA | 55 ± 7.1% | 68.3 ± 2.9% | 36.6 ± 6% | 69.9 ± 5.6%
